From the supplement of paper PMC11283458
The other results are listed elsewhere or left out. Most values come without repeats; read them as rough.

Tested on: Asph alternative exon (endogenous)
Experiment: delta PSI of alternative exon relative to 0.4% DMSO control (RT-PCR) (percentage points); higher = more exon inclusion
Conditions: concentration: not stated (optimised per compound); Neuro-2a
Protocol: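 Reads PSI of the Mef2d reporter microexon and of endogenous mouse neural alternative exons. dPSI is relative to the 0.4% DMSO control, single replicate.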
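Further: exons read include endogenous Mef2d, Mast2, Ergic3 and Trappc9 microexons plus the longer neural-regulated Zdhhc20, Mgrn1 and Asph cassette exons, alongside the reporter microexon.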

SMILES	delta PSI of alternative exon
O=C(C=C(C(=O)c1ccccc1)c1ccccc1)c1ccc2c(c1)OCCO2	-2.64
O=C(NCCNc1nccc(C(F)(F)F)n1)Nc1ccccc1Cl	-10.4
Nc1ncn(C2OC(CO)C(O)C2O)c(=O)n1 (configuration not stated) [Azacytidine-5]	-10.4
O=c1c(Cc2ccccc2Cl)c(-c2ccccc2)oc2ccccc12	2.77
CCOC(=O)c1cnn2c1nc(N1CCCC1)c1ccccc12	1.01
O=C(Nc1cccc(Cl)c1)Nc1ccc(Sc2ccccc2)nc1Sc1ccccc1	2.12
CNC(=S)N/N=C/c1ccccc1O	1.67
Nc1nc(Nc2ccc(S(N)(=O)=O)cc2)nn1C(=S)Nc1c(F)cccc1F [Cdk1/2 Inhibitor III]	2.81
COc1cc(OC)c(/C=C2/C(=O)Nc3ccccc32)c(OC)c1	-4.6
COc1ccc(NC(=O)CSC(=O)c2c(-c3c(Cl)cccc3Cl)noc2C)cc1	-12.6
N[C@@H](CSC(c1ccccc1)(c1ccccc1)c1ccccc1)C(=O)O [S-Trityl-L-cysteine]	-5.65
CCCCCCc1ccccc1NC(=O)Nc1cccnc1	1.38
COCCCNC(=S)N/N=C/c1cccc(OC)c1O	4.35
Cc1onc(-c2c(Cl)cccc2Cl)c1C(=O)SCC(=O)Nc1ccc(Cl)cc1	-6.87
CC(=O)OC1(C(=O)/C=C/c2ccccc2)CCCCC1	-7.92
CC(=O)c1sc(-c2ccccc2)cc1NS(=O)(=O)c1ccc(C)c(Cl)c1	0.739

SMILES	delta PSI of alternative exon
COc1ccc(C(=O)C=C(C(=O)c2ccccc2)c2ccccc2)cc1CN1CCOCC1	-5.77
Cc1onc(-c2c(Cl)cccc2Cl)c1C(=O)SCC(=O)Nc1ccc(F)cc1	-10.6
CC(=O)Nc1ccc([C@H](C)C(=O)Nc2ncc(C(C)C)s2)cc1	-12.2
O=C(C=c1[nH]c(=O)c(=Cc2ccccc2O)s1)c1cccs1	-6.22
O=[N+]([O-])c1ccc(N2CCCN(C(=S)Nc3ccc(Cl)cc3Cl)CC2)nc1	1.24
Cc1cc(NC(=O)Nc2cc(Cl)cc(Cl)c2)on1	0.906
N#CC1(C#N)C(C#N)(C#N)C12CCCCC2	-7.07
O=C(Nc1ccc(-n2nc(C(F)(F)F)cc2-c2cccs2)cc1)c1cccs1	2.35
Nc1ccc(S(=O)(=O)Nc2cccc(C(F)(F)F)c2)cc1	2.52
COc1cc2ncn(-c3cc(OCc4ccccc4C(F)(F)F)c(C(N)=O)s3)c2cc1OC	-0.841
C=CCn1c(N)c(C(=O)NN=Cc2cccs2)sc1=S	-0.784
CCN(CC)C(=S)NC(=S)c1ccc(C)cc1	-8.03
CC(C)(C)c1ccc2cc(C#N)c(C#N)cc2c1	-5.16
O=C(NCCNc1ccc(C(F)(F)F)cn1)Nc1ccccc1Cl	-24.1
N#CC1(C#N)C(c2ccc(Br)s2)C(C(=O)c2ccccc2)N2c3ccccc3C=CC21 (configuration not stated)	-4.87
Nc1nc(=S)c2ncn([C@@H]3O[C@H](CO)[C@@H](O)[C@H]3O)c2[nH]1 [Thioguanosine]	-14.3
